# Data taken from PubChem BioAssay AID743279 (National Center for Advancing Translational Sciences (NCATS), 2014).
# The whole screen tested about 360,000 compounds, of which about 17,000 (4.7%) were called active. Inconclusive results, whose numbers are uncertain, are shown with a selection of clear calls. Cut-off read from the data, not from the text of the source: active = activity change below about -50%; inconclusive = mostly about -30% to -49%; inactive = weaker than that.
# Experiment: qHTS for Inhibitors of Inflammasome Signaling: IL-1-beta AlphaLISA Primary Screen
# Conditions: THP-1 LPS/ATP IL-1B secretion, 16 h; at 57.5 µM, stronger effect = lower value
# How it was run: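 Secreted IL-1B measured by AlphaLISA bead assay after 16 h compound exposure of THP-1 cells; compounds (final up to 57.5 uM) added 1 h before LPS (250 ng/mL) and ATP (1.25 mM) stimulation; lower signal means less secretion.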
# % is set by controls: 0 for no effect and ±100 for the full control effect.
row,Structure (SMILES),activity change
1,Cc1ccc(-n2ncc3c2CC(C)(C)CC3NC(=O)CCc2ccncc2)cc1 (centres undefined),inactive: -4.78%
2,CC(C)=C(NC(=O)c1ccccc1)C(=O)Nc1cccc(C)c1,inactive: 3.51%
3,CC(C)CNC(=O)[C@@H]1CSC2c3ccccc3C(=O)N21 (some centres undefined),inactive: 16.3%
4,Cc1ccc(NC(=O)c2ncn(CCCNCCCN3CCCC3=O)n2)cc1C,inactive: -8.1%
5,C/C(CC(=O)Nc1ccc(Cl)cc1Cl)=N\NC(=O)c1ccco1,inconclusive: -39.4%
6,COc1cc2ncc(S(=O)(=O)c3ccccc3)c(N3CCC4(CC3)OCCO4)c2cc1OC,inconclusive: -42.8%
7,COc1ccccc1CCC(=O)OCC(=O)Nc1c(C)nn(-c2ccccc2)c1C,inactive: 13.9%
8,CSc1cccc(NC(=S)N2CCCN(Cc3ccccc3F)C2)c1,inconclusive: -44%
9,COc1ccc(N(CC(=O)NCCSCc2ccc(C)cc2)S(=O)(=O)c2ccccc2)cc1,inactive
10,COc1ccc(CCn2c(=N)c(C(=O)NCc3ccco3)cc3c(=O)n4ccccc4nc32)cc1,active: -53.6%
11,COc1ccc(CC(=O)NNC(=O)c2ccc(Br)o2)cc1,inactive: 7.33%
12,CCCn1cnc2cc(NCc3cccs3)ccc21,inconclusive: -38.6%
13,Cc1cccc2cc(C(c3nnnn3C(C)(C)C)N(Cc3ccco3)CC3CCCO3)c(=O)[nH]c12 (centres undefined),inconclusive: -35.7%
14,CCCCCCNC(=O)CC(c1ccccc1)c1cc(Br)ccc1O (centres undefined),inconclusive: -32.8%
15,COc1cccc(NC(=O)N2CCC(NC(=O)c3ccco3)CC2)c1,inactive: 5.93%
16,O=C(CNC(=O)c1cccc(S(=O)(=O)N2CCc3ccccc32)c1)Nc1ccccc1Br,inconclusive: -30.3%
17,O=C(C[n+]1ccc2ccccc2c1)c1ccc(NC(=O)c2ccccc2)cc1,inconclusive: -49.7%
18,CCN1C(=O)[C@@H]2[C@@H](c3ccc(-c4ccc(Cl)c(Cl)c4)cc3)N3CCC[C@@]3(C(=O)OC)[C@@H]2C1=O,inconclusive: -37.1%
19,Clc1ncnc2scc(-c3ccccc3)c12,active: -70.4%
20,COc1cccc(CNCc2ccc(SC)cc2)c1OC,inconclusive: -38%
21,Cc1ccsc1-c1nc(CSCC(=O)NCc2ccc3c(c2)OCO3)c(C)o1,inconclusive: -41.9%
22,CCc1nn(-c2ccccc2)c2c1-c1cc(OC)c(OC)cc1C1(N2)C(=O)Nc2ccccc21 (centres undefined),inactive: -4.19%
23,COC(CN(C(=O)CCl)C(C(=O)NC1CCCCC1)c1ccccc1C)OC (centres undefined),active: -104%
24,COc1ccccc1-c1nnc(-c2ccc(N3CCOCC3)cc2)o1,inconclusive: -37.6%
25,Cc1ccc2c(c1)C1CN(C)CCC1N2S(=O)(=O)c1ccc(Oc2ccc([N+](=O)[O-])cc2)cc1 (centres undefined),inconclusive: -43.9%
26,CCc1noc(C)c1C(=O)Oc1ccc(N(C)S(=O)(=O)c2ccccc2)cc1,inconclusive: -49.7%
27,CN(C)c1cc[n+](CC(=O)Nc2cc(C(F)(F)F)ccc2Cl)cc1,inconclusive: -43.9%

row,Structure (SMILES),activity change
1,CSC1=C(C#N)C(=O)NC(c2ccc(Cl)cc2)S1 (centres undefined),inconclusive: -45%
2,CCN(CC)c1ccc(NS(=O)(=O)c2ccc(OC)cc2)cc1,inactive: 21.3%
3,Cc1cccc(C)c1OCC(=O)Nc1ccc(N2CCOCC2)cc1,inactive: -9.02%
4,CCCN1CCN(C(=S)Nc2sc(CC)cc2C(=O)OC)CC1,inconclusive: -48.1%
5,CC(=O)Nc1ccc(NC(=O)C(C)OC(=O)c2cccc(S(=O)(=O)N3CCCCCC3)c2)cc1 (centres undefined),inconclusive: -31.4%
6,CC1(C)CC(=O)C2=C(C1)C(c1cn(-c3ccccc3)nc1-c1ccccc1)C(C#N)=C(N)O2 (centres undefined),active: -56.3%
7,COc1cc(CN2CCC(C(=O)NC(c3ccccc3)c3ccsc3)CC2)cc(OC)c1 (centres undefined),inactive: -23.8%
8,Cc1ccc(C(C(=O)NCC2CCCO2)N(Cc2ccccc2)C(=O)c2ccc(-c3ccccc3)[nH]2)o1 (centres undefined),active: -78.6%
9,c1ccc(-c2csc(Nc3ccc4c(c3)OCO4)n2)cc1,inconclusive: -37.6%
10,COc1ccc(/C=C2\SC(N)=NC2=O)cc1Cl,inconclusive: -42.9%
11,CCCCn1c(N)c(N(CCC(C)C)C(=O)COC(=O)Cc2ccc(Cl)cc2)c(=O)[nH]c1=O,inconclusive: -41.8%
12,Cc1ccc(-c2cc(C(=O)N3CCN(C4CCS(=O)(=O)C4)CC3)c3ccccc3n2)cc1 (centres undefined),inconclusive: -31.8%
13,CCCCN(C)C(=O)c1cc2c(Cl)nc3ccccc3c2s1,inconclusive: -40.1%
14,COc1ccc(NC(=O)Nc2cccc3c2O[C@H](CN(C)C(=O)NC2CCCCC2)[C@@H](C)CN([C@H](C)CO)C3=O)cc1,inconclusive: -32.4%
15,O=c1[nH]cc(-c2ccc(Br)cc2)n1Cc1ccccc1,inactive: 1.58%
16,COc1ccccc1/C=N/NC(=O)CC(=O)NCc1ccccc1,active: -51.1%
17,O=c1ccc(/C=C/c2ccccc2)nn1Cc1ccc(Cl)cc1Cl,inconclusive: -43.7%
18,CC(C)C[C@H]1CN([C@@H](CC(C)C)CN2CCC[C@@H]2CN2C(=S)NC[C@@H]2Cc2ccc(O)cc2)C(=S)N1CC1CCCCC1,inconclusive: -33.7%
19,CC1(C)Cc2c(c(-c3ccco3)nc3sc4c(NCCN5CCOCC5)ncnc4c23)CO1,active: -181%
20,COc1cc(-c2nnn(CC(=O)NC3CCS(=O)(=O)C3)n2)ccc1OCc1ccccc1 (centres undefined),inconclusive: -31%
21,Cc1nc2nc(-c3ccccc3)cn2nc1C,inactive: 28.9%
22,COc1cc(/C=C/C(=O)c2ccc(F)cc2)cc(OC)c1OC,active: -74%
23,CCN1C(=O)C(=Cc2cccc(OC)c2Oc2ccc([N+](=O)[O-])cc2[N+](=O)[O-])SC1=S,active: -94.8%
24,CCc1ccc2oc(-c3cc(N)cc(C)c3O)nc2c1,inconclusive: -30.6%
25,COc1ccc2[nH]c(CN3CCN(C(C)C)C(CCO)C3)c(C)c2c1 (centres undefined),inactive: -2.49%
26,Nc1ccc(-c2nc3ncccc3o2)c(O)c1,inactive: -1.75%
27,Cn1c(=O)c2c(nc(CN3CCc4ccccc4C3)n2Cc2ccccc2F)n(C)c1=O,active: -62.6%
